# According to the supplement of paper PMC8728848:
# This is one part of the list.
# B1: PX9961C-bth-497-22-497 (Bacteroides thetaiotaomicron) (protein)
# chain: DWLDLNTTSSVETGQAIVTLDDAQIALNGIYRLASGHSYYGDNYWYYGDCRAADVQARITKGDGKRVSPYYEYNVLASDNLNIVLPWNTVYKVIRQTNNLIQKIESGSIQSSDTKELNRIKSEALVMRGLSLFNLTRLFGMPYTNDKGASLGVPIETSPSDPTHKPSRSTVAQCYEQVVSDMSNALSGLRQETSNGYINYWAAQALLSRVYLNMGEYQKAYDAATDVIKNNGGRYQLYSYEEYPNVWGQDFQSESLFELYITLSEPSGGTGGEGAPMVYANEATVDWNNLILSEDFLNLLNEDPKDVRHCLTKESVIENNTGLPAAAMHEKVYLAKFPGKTGDDPKTNNICIIRLSEVYLNAAEAGLKKGTDIEEAQGYLNDIISRRTTDTSQQVSTETFTLDRILKERRKELVGEGEVFYDYLRNGLAIERKGSWHLETLKASNAQKIEATDLRIALPIPQSEIDANPNIQQNPR
# Experiments:
# Assay in all cases: glycan array binding signal (z-score within array); higher = stronger binding
# Conditions in all cases: glycan notation: IUPAC condensed, linker removed
# [1] = target: Gal(b1-4)GlcNAc(b1-3)Gal(b1-4)Glc
# How it was run: (§1)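 From the Consortium for Functional Glycomics database, 3228 arrays were curated, keeping only those whose protein sequence was available. Binding is given as a within-array Z-score averaged across arrays sharing a protein sequence and across linkers. Negative Z-scores can be read as non-binding.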
# [2] = target: Gal(b1-4)GlcNAc(b1-3)Gal(b1-4)GlcNAc
# How it was run: as §1
# [3] = target: Gal(b1-4)GlcNAc(b1-3)Gal(b1-4)GlcNAc(b1-2)Man(a1-3)[Gal(b1-4)GlcNAc(b1-3)Gal(b1-4)GlcNAc(b1-2)Man(a1-6)]Man(b1-4)GlcNAc(b1-4)GlcNAc
# How it was run: as §1
# [4] = target: Gal(b1-4)GlcNAc(b1-3)Gal(b1-4)GlcNAc(b1-2)Man(a1-3)[Gal(b1-4)GlcNAc(b1-3)Gal(b1-4)GlcNAc(b1-2)Man(a1-6)]Man(b1-4)GlcNAc(b1-4)[Fuc(a1-6)]GlcNAc
# How it was run: as §1
# [5] = target: Gal(b1-4)GlcNAc(b1-3)Gal(b1-4)GlcNAc(b1-2)[Gal(b1-4)GlcNAc(b1-3)Gal(b1-4)GlcNAc(b1-6)]Man(a1-6)[Gal(b1-4)GlcNAc(b1-3)Gal(b1-4)GlcNAc(b1-2)Man(a1-3)]Man(b1-4)GlcNAc(b1-4)GlcNAc
# How it was run: as §1
# [6] = target: Gal(b1-4)GlcNAc(b1-3)Gal(b1-4)GlcNAc(b1-2)[Gal(b1-4)GlcNAc(b1-3)Gal(b1-4)GlcNAc(b1-6)]Man(a1-6)[Gal(b1-4)GlcNAc(b1-3)Gal(b1-4)GlcNAc(b1-2)Man(a1-3)]Man(b1-4)GlcNAc(b1-4)[Fuc(a1-6)]GlcNAc
# How it was run: as §1
# [7] = target: Gal(b1-4)GlcNAc(b1-3)Gal(b1-4)GlcNAc(b1-3)Gal(b1-4)GlcNAc
# How it was run: as §1
# [8] = target: Gal(b1-4)GlcNAc(b1-3)Gal(b1-4)GlcNAc(b1-3)Gal(b1-4)GlcNAc(b1-2)Man(a1-3)[Gal(b1-4)GlcNAc(b1-3)Gal(b1-4)GlcNAc(b1-3)Gal(b1-4)GlcNAc(b1-2)Man(a1-6)]Man(b1-4)GlcNAc(b1-4)GlcNAc
# How it was run: as §1
# [9] = target: Gal(b1-4)GlcNAc(b1-3)Gal(b1-4)GlcNAc(b1-3)Gal(b1-4)GlcNAc(b1-2)Man(a1-3)[Gal(b1-4)GlcNAc(b1-3)Gal(b1-4)GlcNAc(b1-3)Gal(b1-4)GlcNAc(b1-2)Man(a1-6)]Man(b1-4)GlcNAc(b1-4)[Fuc(a1-6)]GlcNAc
# How it was run: as §1
# [10] = target: Gal(b1-4)GlcNAc(b1-3)Gal(b1-4)GlcNAc(b1-3)Gal(b1-4)GlcNAc(b1-2)[Gal(b1-4)GlcNAc(b1-3)Gal(b1-4)GlcNAc(b1-3)Gal(b1-4)GlcNAc(b1-6)]Man(a1-6)[Gal(b1-4)GlcNAc(b1-3)Gal(b1-4)GlcNAc(b1-3)Gal(b1-4)GlcNAc(b1-2)Man(a1-3)]Man(b1-4)GlcNAc(b1-4)[Fuc(a1-6)]GlcNAc
# How it was run: as §1
# [11] = target: Gal(b1-4)GlcNAc(b1-3)Gal(b1-4)GlcNAc(b1-3)Gal(b1-4)GlcNAc(b1-3)Gal(b1-4)GlcNAc(b1-2)Man(a1-3)[Gal(b1-4)GlcNAc(b1-3)Gal(b1-4)GlcNAc(b1-3)Gal(b1-4)GlcNAc(b1-3)Gal(b1-4)GlcNAc(b1-2)Man(a1-6)]Man(b1-4)GlcNAc(b1-4)GlcNAc
# How it was run: as §1
# [12] = target: Gal(b1-4)GlcNAc(b1-3)Gal(b1-4)GlcNAc(b1-3)Gal(b1-4)GlcNAc(b1-3)Gal(b1-4)GlcNAc(b1-2)Man(a1-3)[Gal(b1-4)GlcNAc(b1-3)Gal(b1-4)GlcNAc(b1-3)Gal(b1-4)GlcNAc(b1-3)Gal(b1-4)GlcNAc(b1-2)Man(a1-6)]Man(b1-4)GlcNAc(b1-4)[Fuc(a1-6)]GlcNAc
# How it was run: as §1
# [13] = target: Gal(b1-4)GlcNAc(b1-3)Gal(b1-4)GlcNAc(b1-3)Gal(b1-4)GlcNAc(b1-3)Gal(b1-4)GlcNAc(b1-2)[Gal(b1-4)GlcNAc(b1-3)Gal(b1-4)GlcNAc(b1-3)Gal(b1-4)GlcNAc(b1-3)Gal(b1-4)GlcNAc(b1-6)]Man(a1-6)[Gal(b1-4)GlcNAc(b1-3)Gal(b1-4)GlcNAc(b1-3)Gal(b1-4)GlcNAc(b1-3)Gal(b1-4)GlcNAc(b1-2)Man(a1-3)]Man(b1-4)GlcNAc(b1-4)[Fuc(a1-6)]GlcNAc
# How it was run: as §1
# [14] = target: Gal(b1-4)GlcNAc(b1-3)Gal(b1-4)GlcNAc(b1-3)Gal(b1-4)GlcNAc(b1-3)Gal(b1-4)GlcNAc(b1-3)Gal(b1-4)GlcNAc(b1-2)Man(a1-3)[Gal(b1-4)GlcNAc(b1-3)Gal(b1-4)GlcNAc(b1-3)Gal(b1-4)GlcNAc(b1-3)Gal(b1-4)GlcNAc(b1-3)Gal(b1-4)GlcNAc(b1-2)Man(a1-6)]Man(b1-4)GlcNAc(b1-4)GlcNAc
# How it was run: as §1
# [15] = target: Gal(b1-4)GlcNAc(b1-3)Gal(b1-4)GlcNAc(b1-3)Gal(b1-4)GlcNAc(b1-3)Gal(b1-4)GlcNAc(b1-3)Gal(b1-4)GlcNAc(b1-2)Man(a1-3)[Gal(b1-4)GlcNAc(b1-3)Gal(b1-4)GlcNAc(b1-3)Gal(b1-4)GlcNAc(b1-3)Gal(b1-4)GlcNAc(b1-3)Gal(b1-4)GlcNAc(b1-2)Man(a1-6)]Man(b1-4)GlcNAc(b1-4)[Fuc(a1-6)]GlcNAc
# How it was run: as §1
# [16] = target: Gal(b1-4)GlcNAc(b1-3)Gal(b1-4)GlcNAc(b1-3)Gal(b1-4)GlcNAc(b1-3)Gal(b1-4)GlcNAc(b1-3)Gal(b1-4)GlcNAc(b1-2)[Gal(b1-4)GlcNAc(b1-3)Gal(b1-4)GlcNAc(b1-3)Gal(b1-4)GlcNAc(b1-3)Gal(b1-4)GlcNAc(b1-3)Gal(b1-4)GlcNAc(b1-6)]Man(a1-6)[Gal(b1-4)GlcNAc(b1-3)Gal(b1-4)GlcNAc(b1-3)Gal(b1-4)GlcNAc(b1-3)Gal(b1-4)GlcNAc(b1-3)Gal(b1-4)GlcNAc(b1-2)Man(a1-3)]Man(b1-4)GlcNAc(b1-4)[Fuc(a1-6)]GlcNAc
# How it was run: as §1
# [17] = target: Gal(b1-4)GlcNAc(b1-3)Gal(b1-4)GlcNAc(b1-3)Gal(b1-4)GlcNAc(b1-3)Gal(b1-4)GlcNAc(b1-3)Gal(b1-4)GlcNAc(b1-3)Gal(b1-4)GlcNAc(b1-2)Man(a1-3)[Gal(b1-4)GlcNAc(b1-3)Gal(b1-4)GlcNAc(b1-3)Gal(b1-4)GlcNAc(b1-3)Gal(b1-4)GlcNAc(b1-3)Gal(b1-4)GlcNAc(b1-3)Gal(b1-4)GlcNAc(b1-2)Man(a1-6)]Man(b1-4)GlcNAc(b1-4)GlcNAc
# How it was run: as §1
# [18] = target: Gal(b1-4)GlcNAc(b1-3)Gal(b1-4)GlcNAc(b1-3)GalNAc
# How it was run: as §1
# [19] = target: Gal(b1-4)GlcNAc(b1-3)Gal(b1-4)GlcNAc(b1-3)[Gal(b1-4)GlcNAc(b1-3)Gal(b1-4)GlcNAc(b1-6)]GalNAc
# How it was run: as §1
binder,measurement,setting,value
B1,glycan array binding signal (z-score),[1],-0.534
same,glycan array binding signal (z-score),[2],0.061
same,glycan array binding signal (z-score),[3],1.26
same,glycan array binding signal (z-score),[4],1.04
same,glycan array binding signal (z-score),[5],2.36
same,glycan array binding signal (z-score),[6],2.08
same,glycan array binding signal (z-score),[7],0.211
same,glycan array binding signal (z-score),[8],0.401
same,glycan array binding signal (z-score),[9],1.06
same,glycan array binding signal (z-score),[10],0.32
same,glycan array binding signal (z-score),[11],0.247
same,glycan array binding signal (z-score),[12],1.14
same,glycan array binding signal (z-score),[13],-0.171
same,glycan array binding signal (z-score),[14],0.902
same,glycan array binding signal (z-score),[15],0.403
same,glycan array binding signal (z-score),[16],7.33
same,glycan array binding signal (z-score),[17],0.289
same,glycan array binding signal (z-score),[18],-0.631
same,glycan array binding signal (z-score),[19],1.22
